The source of these data is ChEMBL document CHEMBL1201862, “PubChem BioAssay data set” (2004).

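A five-concentration, 48-hour dose response in 96-well plates underlies each endpoint, interpolated linearly between surrounding concentrations. The concentration for 50% growth inhibition is given as GI50.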 Calls of active or inactive are those of the source. Rule as the data show it: active = GI50 up to about 1.1 µM and inactive = higher.

The experiment relates to NCI-H322M. As to the kind of experiment: NCI-60 cell line screen, 48 h.
`CNC(=O)OCc1c2ccncc2c(C)c2c1[nH]c1ccc(OC)cc12`: the GI50 was active: 0.547 µM.
With `COc1ccc(-n2c(N)c(C#N)c(C#N)c2-c2ccco2)cc1`, the GI50 was inactive: > 100 µM.
As for `O=C1CS(=O)(=O)C(c2cccc(Oc3ccccc3)c2)N1c1cc(Cl)ccc1Cl` (stereo not given), the GI50 is inactive: 45 µM.
To `COC(=O)/C(=N\NC(=O)c1ccccc1O)C(C#N)c1ccc(Cl)cc1` (stereo not given) belongs inactive: 56.4 µM.
The same measure for `CS(=O)(=O)N1CC(CI)c2ccc(O)cc21` (stereo not given): inactive: 4.94 µM.
On to `O=C(CC(=O)N1N=C(N2CCCCC2)CC1c1ccccc1)Nc1ccccc1` (stereo not given), for which the GI50 was inactive: > 100 µM.
In the case of `Cn1c(=O)c2c(nc3n2CC(=O)N3CCCCl)n(C)c1=O`, the GI50 is inactive: > 100 µM.
For `O=C1C(Cl)N(c2ccccc2)C1c1c[nH]c2ccccc12` (stereo not given), the GI50 was inactive: > 100 µM.
The same measure for `Cc1cc([N+](=O)[O-])c(C)c2c1[nH]c1ccc(Cl)cc12`: inactive: > 100 µM; for `O=P1(Cc2ccccc2)N(Cc2ccccc2)[C@@H]2CCCC[C@H]2N1Cc1ccccc1`: inactive: 11.5 µM; for `CC(=O)OC1(Sc2ccccc2)CC2[C@H]3COC(C)(C)O[C@H]3CC[C@@]2(C)CC1=O` (stereo not given in full): inactive: 63.7 µM.
On to `CCOc1ccc(N/C(=C(/C(Cl)=C(/Cl)NC(C)(C)C)[N+](=O)[O-])n2nnc3ccccc32)cc1`, for which the GI50 was inactive: > 100 µM.
The same measure for `CCOC(=O)c1c(NS(=O)(=O)c2ccc(C)cc2)sc2c1CCCC2`: inactive: 43.9 µM; for `NC(=O)N/N=C(\C(=O)C(=O)Nc1ccc(Cl)c(C(F)(F)F)c1)c1nc2ccc(C(=O)c3ccccc3)cc2nc1O`: inactive: > 100 µM; for `Cc1cc(/N=C/c2ccc(N(C)C)cc2)n(-c2ccccc2)n1`: inactive: 45.3 µM.
To `CC(=O)O[C@H]1CCC(C)=CCC[C@@]2(C)C(CC[C@@H]2[C@@H](C)/C=C/C(C)C)c2ccc(cc2C(=O)O)C1` (stereo not given in full) belongs inactive: 5.24 µM; to `CCc1n[nH]c(=O)n1-c1ccncc1`, inactive: > 100 µM.
Consider `CC(C)(C)c1cc2c(O)c(c1)Cc1cc(C(C#N)(Cc3ccc4ccccc4c3)Cc3ccc4ccccc4c3)cc(c1O)Cc1cc(C(C)(C)C)cc(c1O)Cc1cc(C(C#N)(Cc3ccc4ccccc4c3)Cc3ccc4ccccc4c3)cc(c1O)C2`, for which the GI50 is inactive: > 100 µM.
Take `O=C1C=CC(=O)c2c1ccc1c3ccccc3n(CCCCCCCCCCCCn3c4ccccc4c4ccc5c(c43)C(=O)C=CC5=O)c21`: the GI50 is inactive: > 100 µM.
In the case of `CC(=O)C1(O)CC2(c3ccccc3)C(=O)C1(c1ccccc1)C(c1ccccc1)=C2c1ccccc1` (stereo not given), the GI50 is inactive: > 100 µM.
Consider `COc1ccc(C2=C3SC=c4ccccc4=C3ON=C2c2ccccc2)cc1`, for which the GI50 is inactive: > 100 µM.
For `NCCNC(=O)c1cccc2cc3ccccc3nc12`, the GI50 was inactive: 2.87 µM.
To `CN(C)c1ccc(C(=NNC(=O)c2cc3ccccc3[nH]2)c2ccc(N(C)C)cc2)cc1` belongs active: 0.933 µM.
Consider `CCOC(=O)c1c(-c2ccc(Cl)cc2)c(C#N)c(=S)n(C2OC(COC(C)=O)C(OC(C)=O)C(OC(C)=O)C2OC(C)=O)c1-c1ccccc1` (stereo not given), for which the GI50 was inactive: > 100 µM.
The same measure for `O=C1CCC2(c3ccc(Cl)cc3)Nc3ncncc3N12` (stereo not given): inactive: > 10 µM.
Regarding `OC(c1ccc2c(c1)OCO2)c1ccc2c(c1)OCO2`, the GI50 is inactive: > 100 µM.
To `O=S(=O)(O)CCCC1S(=O)(=O)OCCOS1(=O)=O` belongs inactive: > 100 µM; to `CC(=O)OC1CC[C@@]2(C)C(CC[C@]3(C)C2CC=C2[C@@H]4C(C)[C@H](C)CCC4(C)CCC23C)[C@@]1(C)C(=O)O` (stereo not given in full), inactive: 18.7 µM; to `CC(C)(C)C1CCC(O)(c2ccccc2)CC1` (stereo not given), inactive: > 100 µM.
Take `C/C(=C(/C)c1cc[n+](C)cc1)c1cc[n+](C)cc1`: the GI50 was inactive: > 75 µM.
